Drawing on paper PMC5892938, this text covers binding signal (log2 fold change) for 37 sequences.

The list shows a part of the results. At the low end of the ranking the order means little.

The experiment has as its target GST-SBP-SLBP (stem-loop binding protein) (UniProt Q14493). As to the kind of experiment: targeted RNA Bind-n-Seq.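 Also: DESeq read counts versus GST-SBP nonspecific binding control pulldown.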 Particulars: RBNS binding buffer: 25 mM Tris pH 7.5, 150 mM KCl, 3 mM MgCl2, 0.1% Tween, 0.5 mg/mL BSA, 1 mM DTT; 27 nM protein, 750 pM RNA pool; temperature not stated; high values mean tight binding.
For the sequence “GGUCACGUCUCAAUCAACUCUUUUUCCAGGGAAAACCCUGGCGUUUUCAACAGCUCGCAGUCAAG”, the binding signal (log2 fold change) was -0.226.
With “GGUCACGUCUCAAUCAACUCAAUCCCAGGAGUUUCCUCCUGUUAUGUCAACAGCUCGCAGUCAAG” the figure was 0.0684; with “GGUCACGUCUCAAUCAACUCUAUCCCCAGGGAAACCCCUGGUAAACUCAACAGCUCGCAGUCAAG”, -0.386.
The same measure for “GGUCACGUCUCAAUCAACUCAUUCCCCAGGGAAAUCCCUGGUAGUCUCAACAGCUCGCAGUCAAG”: -0.166; for “GGUCACGUCUCAAUCAACUCUAUCUCCAGGGAAACCCCUGGCUUUCUCAACAGCUCGCAGUCAAG”: 0.169; for “GGUCACGUCUCAAUCAACUCAUUCUCCAGGGAAAGCCCUGGUUAUUUCAACAGCUCGCAGUCAAG”: 0.192.
Consider “GGUCACGUCUCAAUCAACUCUCCCGAGGGGGGGAAAACCCCUUUACCCUCUCCAUCAACAGCUCGCAGUCAAG”, for which the binding signal (log2 fold change) is -0.00214.
The same measure for “GGUCACGUCUCAAUCAACUCAUCUUCAGGAGUUUUCUCCUGCUUUUUCAACAGCUCGCAGUCAAG”: -0.0637.
With “GGUCACGUCUCAAUCAACUCUAUCUCCAGGGAAAGCCCUGGUAAACUCAACAGCUCGCAGUCAAG” the figure was 0.117.
With “GGUCACGUCUCAAUCAACUCUUUCCCCAGGGAAACCCCUGGCAUUCUCAACAGCUCGCAGUCAAG” the figure was 0.163; with “GGUCACGUCUCAAUCAACUCAUUAGAGGGGGGGAAAACCCCUUUGCCCUCAUUAUCAACAGCUCGCAGUCAAG”, -0.0671; with “GGUCACGUCUCAAUCAACUCAUCUCCCAGGGAAAACCCUGGCAAACUCAACAGCUCGCAGUCAAG”, -0.314.
In the case of “GGUCACGUCUCAAUCAACUCUUUCCCCAGGGAAAUCCCUGGUAUUCUCAACAGCUCGCAGUCAAG”, the binding signal (log2 fold change) was found to be 0.0453.
For the sequence “GGUCACGUCUCAAUCAACUCAACUUCAGGAGUUUGCUCCUGCAUUCUCAACAGCUCGCAGUCAAG”, the binding signal (log2 fold change) is -0.149.
As to “GGUCACGUCUCAAUCAACUCCAUAGAGGGGGGGAAAACCCCUUUACCCUCACAUUCAACAGCUCGCAGUCAAG”, the binding signal (log2 fold change) came to 0.32.
With “GGUCACGUCUCAAUCAACUCUCAAGAGGGGGGGAAAACCCCUUUGCCCUCAUUAUCAACAGCUCGCAGUCAAG” the figure was 0.288; with “GGUCACGUCUCAAUCAACUCUUCAGAGGGGGGGAAAACCCCUUUGCCCUCACAAUCAACAGCUCGCAGUCAAG”, 0.147; with “GGUCACGUCUCAAUCAACUCCCAAAGGUUUUUUUUAGAGCCACCCAUCAACAGCUCGCAGUCAAG”, 0.324.
In the case of “GGUCACGUCUCAAUCAACUCAUCCUCCAGGGAAAACCCUGGCUAACUCAACAGCUCGCAGUCAAG”, the binding signal (log2 fold change) was found to be 0.102.
With “GGUCACGUCUCAAUCAACUCCCUCGAGGGGGGGAAAACCCCUUUACCCUCUUCAUCAACAGCUCGCAGUCAAG” the figure was -0.0827.
With “GGUCACGUCUCAAUCAACUCAGUCCCAGGAGUUUGCUCCUGCUUAUUCAACAGCUCGCAGUCAAG” the figure was -0.0718; with “GGUCACGUCUCAAUCAACUCAUUCCCCAGGGAAACCCCUGGCAAUUUCAACAGCUCGCAGUCAAG”, 0.108; with “GGUCACGUCUCAAUCAACUCUUCUUCCAGGGAAAACCCUGGUUAACUCAACAGCUCGCAGUCAAG”, 0.0635.
The same measure for “GGUCACGUCUCAAUCAACUCAGUUCCCAGGGAAAUCCCUGGCUUUUUCAACAGCUCGCAGUCAAG”: -0.0744.
Consider “GGUCACGUCUCAAUCAACUCAAUCCCCAGGGAAACCCCUGGCAUUCUCAACAGCUCGCAGUCAAG”, for which the binding signal (log2 fold change) came out at 0.134.
With “GGUCACGUCUCAAUCAACUCUUUUCCCAGGGAAAUCCCUGGUUAUUUCAACAGCUCGCAGUCAAG” the figure was -0.103; with “GGUCACGUCUCAAUCAACUCAACUUCAGGAGUUUUCUCCUGUAAACUCAACAGCUCGCAGUCAAG”, 0.13.
With “GGUCACGUCUCAAUCAACUCAUUUUCAGGAGUUUACUCCUGUUUUUUCAACAGCUCGCAGUCAAG” the figure was -0.0154; with “GGUCACGUCUCAAUCAACUCAAGUCCAGGAGUUUACUCCUGUUAUUUCAACAGCUCGCAGUCAAG”, 0.142; with “GGUCACGUCUCAAUCAACUCUAUAGAGGGGGGGAAAACCCCUUUACCCUCAACAUCAACAGCUCGCAGUCAAG”, -0.0627.
Take “GGUCACGUCUCAAUCAACUCUUUCCCAGGAGUUUACUCCUGUAAUGUCAACAGCUCGCAGUCAAG”: the binding signal (log2 fold change) is 0.203.
“GGUCACGUCUCAAUCAACUCAACUUCAGGAGUUUGCUCCUGCUAUGUCAACAGCUCGCAGUCAAG”: the binding signal (log2 fold change) worked out at 0.282.
The same measure for “GGUCACGUCUCAAUCAACUCUUUUCCCAGGGAAAGCCCUGGCAAUUUCAACAGCUCGCAGUCAAG”: 0.113; for “GGUCACGUCUCAAUCAACUCAUUUCCAGGAGUUUUCUCCUGUAUACUCAACAGCUCGCAGUCAAG”: -0.0628.
The same measure for “GGUCACGUCUCAAUCAACUCAAUCUCAGGAGUUUGCUCCUGCUAUGUCAACAGCUCGCAGUCAAG”: 0.227; for “GGUCACGUCUCAAUCAACUCCACAGAGGGGGGGAAAACCCCUUUACCCUCAUUAUCAACAGCUCGCAGUCAAG”: -0.0477.
The same measure for “GGUCACGUCUCAAUCAACUCUUCCCCCAGGGAAAUCCCUGGCAAACUCAACAGCUCGCAGUCAAG”: 0.202.
